In all, about 33,000 sequences were measured (“E-score (-0.5 to 0.5)”: median about -0.035, highest 2% from about 0.35 on). The list shows a part of the results.
Molecular target: T1, Pdr3 (UniProt P33200)
T1 sequence: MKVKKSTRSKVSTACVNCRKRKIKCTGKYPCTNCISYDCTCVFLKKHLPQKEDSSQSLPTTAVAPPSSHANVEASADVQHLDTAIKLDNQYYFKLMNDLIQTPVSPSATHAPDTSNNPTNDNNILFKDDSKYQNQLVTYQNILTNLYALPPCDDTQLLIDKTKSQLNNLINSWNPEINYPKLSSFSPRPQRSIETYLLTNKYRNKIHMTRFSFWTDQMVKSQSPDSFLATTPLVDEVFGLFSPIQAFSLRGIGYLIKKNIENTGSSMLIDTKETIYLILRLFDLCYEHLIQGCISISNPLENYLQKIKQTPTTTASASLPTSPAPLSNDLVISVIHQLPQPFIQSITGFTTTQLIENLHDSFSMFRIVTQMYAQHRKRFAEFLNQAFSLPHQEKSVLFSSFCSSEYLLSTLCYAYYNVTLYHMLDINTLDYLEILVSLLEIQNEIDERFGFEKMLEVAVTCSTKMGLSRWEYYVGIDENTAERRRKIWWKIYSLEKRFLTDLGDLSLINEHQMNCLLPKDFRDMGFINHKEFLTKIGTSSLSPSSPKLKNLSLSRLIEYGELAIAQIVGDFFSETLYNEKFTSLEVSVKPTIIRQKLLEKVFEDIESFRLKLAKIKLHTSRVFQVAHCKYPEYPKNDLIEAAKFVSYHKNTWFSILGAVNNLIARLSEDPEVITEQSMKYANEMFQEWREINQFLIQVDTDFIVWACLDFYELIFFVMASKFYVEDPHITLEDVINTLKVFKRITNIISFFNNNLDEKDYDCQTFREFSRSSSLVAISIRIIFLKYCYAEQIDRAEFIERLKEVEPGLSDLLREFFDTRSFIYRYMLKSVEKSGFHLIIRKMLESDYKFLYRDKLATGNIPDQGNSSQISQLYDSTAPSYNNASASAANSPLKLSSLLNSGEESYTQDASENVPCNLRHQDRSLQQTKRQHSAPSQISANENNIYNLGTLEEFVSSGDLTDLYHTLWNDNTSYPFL
Experiment: PBM E-score (8-mer binding enrichment) (E-score (-0.5 to 0.5)); higher = stronger / more preferred TF binding; most listed sequences are background and not binding sites
Settings: protein concentration: 200 nM; construct: GST-full length
Summary of the method: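 Yeast transcription factors, full-length or as DNA-binding domains, were expressed with a GST tag using PURExpress in vitro transcription/translation. At about 100-200 nM they were applied to universal all-10-mer Agilent arrays, double-stranded by primer extension on fresh or once-stripped slides. Fluorescent anti-GST detected bound protein, and masliner normalised the scans. E-scores for ungapped eight-base words, pooled with reverse complements, came from the Universal PBM Analysis Suite.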

| Sequence | PBM E-score |
| --- | --- |
| ACAGTGCG | 0.0464 |
| GAGCGATA | -0.128 |
| ACTCCTCG | 0.137 |
| ATAATCGG | 0.287 |
| ATACCATC | 0.145 |
| CCTTGTTA | -0.132 |
| ATCTGATG | -0.131 |
| GCGGAAAC | 0.415 |
| AGTCGTTA | -0.244 |
| ACGGTGTA | -0.122 |
| CGTCCCCC | -0.188 |
| CCGGCCCC | 0.189 |
| GTTATACA | -0.0537 |
| ACCTTGAG | -0.0954 |
| GGGTAAAC | 0.0209 |
| GAACAGTA | 0.00011 |
| ACCAGGGT | -0.235 |
| CAGAATGG | 0.0132 |
| AAATGTGT | -0.0435 |
| AGACGTCT | -0.265 |
| AGCGAATA | -0.0841 |
| CTGATGTA | -0.0245 |
| TCAATGCA | -0.194 |
| AACTGTAC | -0.229 |
| GTGAATCA | -0.0381 |

| Sequence | PBM E-score |
| --- | --- |
| ACGCAGGG | -0.0388 |
| AAGCGGGG | -0.0421 |
| CGTTTAAG | -0.157 |
| AGCTCAGC | -0.143 |
| AACCATCG | 0.0696 |
| AAATTTAC | -0.0418 |
| GAAAAACC | 0.122 |
| CTCGGTGC | 0.0604 |
| CGCACTGC | 0.0531 |
| AAATAGGG | 0.0666 |
| GGCACTTA | -0.0858 |
| CAGTTAGG | -0.225 |
| AGTCTTAG | -0.224 |
| CACAGCTG | -0.203 |
| CTCACGGC | -0.0134 |
| ATTGTACC | 0.028 |
| GGTACCGA | -0.0402 |
| TACGCCGA | -0.0463 |
| GACGAATC | -0.0176 |
| AGTAACAG | -0.0124 |
| CGCTCATA | -0.0487 |
| AGATACCC | 0.0996 |
| AAGCCCGG | 0.379 |
| GAACGATA | -0.0239 |
| ACATGAGC | -0.107 |

| Sequence | PBM E-score |
| --- | --- |
| CAGACCCC | -0.146 |
| ACCTCTGG | -0.182 |
| AAACCCTA | -0.144 |
| CTCGAAAA | -0.218 |
| CAAAAACG | 0.152 |
| CGGGGGCA | -0.00755 |
| CAACCAAG | -0.107 |
| CACCGCCA | 0.0193 |
| GCGTCGCC | 0.106 |
| CAATTGCC | -0.0825 |
| ATGCCCAC | -0.0212 |
| CGGTTCTA | 0.0361 |
| CTCCAACC | -0.00089 |
| TAGAGAGA | -0.165 |
| CCCCAGGG | -0.147 |
| ACAAATCA | -0.0555 |
| AGAGATGG | 0.0558 |
| GTGATAAC | -0.027 |
| GGATCACA | 0.0931 |
| GATAAATA | 0.115 |
| GGCTAAAC | -0.135 |
| TGGTTGAA | -0.0988 |
| CACCGAAG | -0.00668 |
| ATGATCCC | 0.19 |
| AACGTCAC | -0.0419 |

| Sequence | PBM E-score |
| --- | --- |
| GGGCGCAA | -0.0365 |
| GGATTATA | 0.195 |
| AGTTCGAG | 0.0163 |
| AAATTCAC | -0.0187 |
| CAACGACA | 0.0336 |
| CCTTAGTA | -0.0781 |
| AACTCCGC | 0.301 |
| CAGACCTA | -0.194 |
| CGCAAGGC | 0.172 |
| ATCCTACA | -0.178 |
| CGGAGCAC | 0.297 |
| ATCATGCG | -0.0659 |
| ACGGGGAG | 0.113 |
| CGTAACAG | 0.00621 |
| ATTCAAAG | -0.126 |
| CGCGGGTC | 0.331 |
| CGGGGGAG | 0.0505 |
| TGCACTAA | -0.0147 |
| AGCACATC | 0.0574 |
| AGATTCGG | 0.161 |
| GACGGATA | 0.251 |
| ATCGCTTA | -0.254 |
| TCCGATAA | 0.289 |
| AGTGGATA | 0.117 |
| GAGTATGA | 0.166 |

| Sequence | PBM E-score |
| --- | --- |
| ACTATTGA | -0.0249 |
| CTGAATAA | -0.112 |
| TAATTATA | 0.217 |
| GGCGAAGA | 0.103 |
| AGACGGGG | 0.101 |
| GTCGTTAA | -0.102 |
| CCCAAAAC | -0.00477 |
| AGCCCCTC | -0.011 |
| CATTATGA | -0.161 |
| CACTAGTG | -0.0719 |
| CGCACTAC | 0.0185 |
| CCAGCTTC | 0.0568 |
| CCCCTACG | -0.307 |
| CACGGTAG | -0.115 |
| ACCACTTG | -0.0862 |
| CAAGGATA | -0.0589 |
| ATCGCACG | -0.207 |
| GAGCGATC | -0.00897 |
| TCGGCAAA | -0.0471 |
| AAGCGCGA | 0.0804 |
| GACATAGC | -0.0234 |
| CTTCCATC | 0.0277 |
| GATCTTGC | 0.18 |
| CGACCAGA | -0.0251 |
| ATCAGTTG | -0.0997 |

| Sequence | PBM E-score |
| --- | --- |
| ATAACCCC | 0.0666 |
| CAGTACTA | -0.139 |
| CCGTGTAC | 0.199 |
| ATCGGGGC | -0.0418 |
| ACCAAGGA | 0.0326 |
| AATAGACT | -0.247 |
| ACTCTCCC | 0.159 |
| AATTCCTC | 0.0037 |
| CCTATATC | -0.0312 |
| GTCGTGGA | -0.0456 |
| ACATGAGT | -0.248 |
| ACTTGAGC | -0.272 |
| GATTTTAC | -0.0975 |
| GGAACGAC | 0.0731 |
| GACGAAGC | -0.0363 |
| CATCCCCC | 0.0287 |
| CGTCCGAC | 0.109 |
| ATATAGTA | 0.0137 |
| GCCGCGAA | 0.112 |
| CTAATAGA | -0.0107 |
| ACAAGACC | -0.101 |
| AAGTAGAA | -0.153 |
| ACCAGGAG | -0.124 |
| CGAAATAG | 0.0496 |
| CTCGAAGC | -0.144 |

| Sequence | PBM E-score |
| --- | --- |
| TCTGCGCA | 0.00827 |
| CTCATAAG | -0.173 |
| AGAGGTAC | -0.0729 |
| AGCTATAG | -0.332 |
| CGACTACA | -0.168 |
| AGCAAAGA | -0.0461 |
| GGGGGTAC | -0.0958 |
| GAAATTTC | 0.084 |
| AGGACCGC | 0.191 |
| GAGTACTA | 0.0457 |
| GCAAGCGA | -0.035 |
| CGACAACC | 0.023 |
| AACCAAGA | -0.0287 |
| AAGGGATA | -0.206 |
| CAGCTCGC | 0.0477 |
| AGTTGAAT | -0.0179 |
| AAAGAGCT | -0.133 |
| TCCACCAA | -0.0674 |
| AATTTCTC | 0.135 |
| ATGGACTG | -0.163 |
| CTGAAAGC | -0.0151 |
| AGTGGCAA | -0.049 |

Source: the supplement of paper PMC3334620
